Out of some 310,000 compounds screened, about 14,000 (4.5%) showed an effect of 50% or more. The effect is printed as a negative number. Some of the results follow.
molecular target: human ether-à-go-go-related gene (hERG) potassium channel (human, UniProt Q12809); assay: primary screen, population patch clamp on CHO cells stably expressing hERG
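Also: peak tail current of the secondary pulse compared with the same well before compound.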

human ether-à-go-go-related gene (hERG) potassium channel, sequence (Q12809 whole entry, looked up): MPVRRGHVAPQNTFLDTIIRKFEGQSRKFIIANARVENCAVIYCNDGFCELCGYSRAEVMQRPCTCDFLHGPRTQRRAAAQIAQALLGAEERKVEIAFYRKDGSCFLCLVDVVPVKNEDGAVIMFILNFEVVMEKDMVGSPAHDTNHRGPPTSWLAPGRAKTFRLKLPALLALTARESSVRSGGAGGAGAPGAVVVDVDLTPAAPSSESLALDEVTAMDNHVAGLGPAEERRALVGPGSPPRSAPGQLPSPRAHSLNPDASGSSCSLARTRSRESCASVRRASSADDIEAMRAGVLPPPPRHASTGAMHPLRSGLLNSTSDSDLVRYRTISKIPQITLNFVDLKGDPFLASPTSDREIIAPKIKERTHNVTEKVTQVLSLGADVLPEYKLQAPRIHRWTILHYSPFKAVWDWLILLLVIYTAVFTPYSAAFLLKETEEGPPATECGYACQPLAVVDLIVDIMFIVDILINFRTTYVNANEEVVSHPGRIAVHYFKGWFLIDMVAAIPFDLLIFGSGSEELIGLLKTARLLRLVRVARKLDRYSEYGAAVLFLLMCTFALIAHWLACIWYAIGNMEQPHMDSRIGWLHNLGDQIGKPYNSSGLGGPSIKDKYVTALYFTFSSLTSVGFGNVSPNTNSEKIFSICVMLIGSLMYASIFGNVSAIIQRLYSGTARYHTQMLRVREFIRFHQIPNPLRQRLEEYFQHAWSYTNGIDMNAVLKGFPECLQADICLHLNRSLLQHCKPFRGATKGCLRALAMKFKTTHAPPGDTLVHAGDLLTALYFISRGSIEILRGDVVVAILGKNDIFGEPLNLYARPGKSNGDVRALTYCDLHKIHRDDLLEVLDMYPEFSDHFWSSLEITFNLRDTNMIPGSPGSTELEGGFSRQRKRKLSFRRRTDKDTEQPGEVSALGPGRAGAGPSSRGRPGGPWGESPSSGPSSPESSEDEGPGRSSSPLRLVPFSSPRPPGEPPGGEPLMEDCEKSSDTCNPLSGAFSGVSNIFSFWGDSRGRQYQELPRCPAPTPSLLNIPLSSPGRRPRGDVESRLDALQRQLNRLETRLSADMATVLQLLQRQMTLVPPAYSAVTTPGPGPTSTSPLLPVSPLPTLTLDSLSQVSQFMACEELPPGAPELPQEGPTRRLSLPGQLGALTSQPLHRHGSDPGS

Structure (SMILES) | hERG current change (%, negative = inhibition) at 10uM
CCCOC(=O)c1ccc(NC(=O)/C=C/c2cccs2)cc1 | 0.453%
COc1ccc(C)cc1N(CC(=O)Nc1cccc(N(C)S(C)(=O)=O)c1)S(C)(=O)=O | -13.8%
O=C(CCN1C(=O)COc2ccccc21)NCCCN1CCN(c2ccc(F)cc2)CC1 | -63.7%
CC(=O)Cc1nsc(Nc2ccc(F)cc2)n1 | 5.29%
CCC(CC)C(=O)N(CCc1ccc(OC)cc1)Cc1nc2ccccc2c(=O)[nH]1 | -12.5%
COc1ccccc1NC(=O)c1cn(CCC#N)nc1-c1ccc(F)cc1 | 5.36%
Cc1ccc(-n2nc(C(=O)NCc3ccc(C)o3)c3c4ccccc4n(C)c3c2=O)cc1 | -3.05%
Cc1ccc(C2CC(c3ccc(Cl)cc3)n3nc(N)nc3N2)cc1 (stereo not shown) | -10.7%
Cl.N=c1n(CCN2CCCC2)c2ccccc2n1CC(O)c1ccco1 (stereo not shown) | -34%
Cc1ccc(C)c(S(=O)(=O)c2c(C)cc(C)nc2Cl)c1 | -5.61%
COc1ccc(/C=N/NC(=O)C2C3CCCCC32C)cc1OC (stereo not shown) | 7.83%
O=C1C(C=Nc2ccccc2)=C(O)c2ccccc21 | -12%
COC(=O)c1ccc2c(=O)n(NC(C)=O)c(=S)[nH]c2c1 | 12.7%
C/C(=N\NC(=O)c1nn(C)cc1Br)c1cccc(NC(=O)C2CCCC2)c1 | -9.3%
Cc1cc(C)nc(NC(=O)CSc2nccc(C)n2)n1 | 9.07%
O=C(Nc1cccnc1)c1cc(-c2ccco2)on1 | 7.82%
O=C1NC2(CCCCCCC2)C(=O)N1Cc1ccc(F)cc1 | 3.76%
C=CCc1ccc(OCCCOc2ccc(C)c(C)c2)c(OC)c1 | -29.2%
Cc1nnsc1C(=O)NNS(=O)(=O)c1ccccc1 | 8.81%
O=C(C1CCCN(Cc2ccc(F)cc2)C1)N1CCCCC1.O=C(O)C(=O)O (stereo not shown) | 10%
O=C(CS(=O)(=O)Cc1ccccc1)Nc1ccc(S(=O)(=O)N2CCOCC2)cc1 | -10%
Oc1[nH]c2c(Cl)cc(Cl)cc2c1N=NC(=S)NCC1CCCO1 (stereo not shown) | 7.88%

Structure (SMILES) | hERG current change (%, negative = inhibition) at 10uM
O=C(NCCc1c[nH]c2ccccc12)C(=O)Nc1ccccc1 | 13.7%
Cc1ccc(-c2noc(CCC(=O)NCc3ccccc3CN3CCOCC3)n2)cc1 | -36.5%
CCN(CC)CCN(C(=O)Cn1nnc(-c2ccc(OC)c(OC)c2)n1)C(C(=O)NC1CCCC1)c1ccc(F)cc1 (stereo not shown) | -35.1%
COc1cc(NC(=S)N2CCN(c3ccccn3)CC2)c(OC)cc1Cl | 2.26%
COc1ccc(S(=O)(=O)N2CCOCC2)cc1C(=O)Nc1ccc2c(c1)OCO2 | 0.68%
COc1cc(C(C#N)N2CCOCC2)ccc1O (stereo not shown) | 13.9%
S=C1NCN(Cc2ccco2)CN1c1cccc2ccccc12 | 8.32%
CC(C)c1ccc(OCC(O)Cn2cnc3ccccc32)cc1 (stereo not shown) | -11.3%
Cc1ccc(S(=O)(=O)NCCC(=O)NC(C)CCc2ccccc2)cc1 (stereo not shown) | -14.8%
Cc1ccc(NC(=O)c2sc3nc(C)nc(N4CCN(c5ccccn5)CC4)c3c2C)c(C)c1 | -40.1%
CCC(=O)NC1(C(F)(F)F)C(=O)Nc2c1c(=O)[nH]c(=O)n2CC(C)C (stereo not shown) | -1.31%
CCOC(=O)C(Sc1ncc(C#N)c(N)n1)C(C)C (stereo not shown) | 0.0332%
O=C1c2ccccc2S(=O)(=O)N1CC(O)Cn1c2ccccc2c2ccccc21 (stereo not shown) | 3.03%
CN(C)c1ccc(/C=N/NC(=O)C(O)(c2ccccc2)c2ccccc2)o1 | -12.3%
CCOc1ccc(NC(=O)CSc2nc(N3CCOCC3)nc(N3CCOCC3)n2)cc1 | 4.7%
O=C(Nc1ccc2ccccc2c1)c1cccc(F)c1 | 17.7%
O=C(CSc1nc2c([nH]c3ccccc32)c(=O)n1-c1cccc(Cl)c1)N1CCOCC1 | 1.95%
O=C(OCc1c(F)cccc1Cl)c1cnccn1 | 13.6%
CC(=O)c1ccc(NC(=S)N2CCN(CCN3C(=O)c4cccc5cccc(c45)C3=O)CC2)cc1 | 26.9%
Cc1ccc(S(=O)(=O)N2CCOCC2)cc1C(=O)N(Cc1nnc(-c2ccccc2Cl)o1)C1CC1 | -33.9%
c1ccc(CNC2=NCCC2)nc1 | 13.1%
COC(=O)c1ccc(NC(=O)CSc2nnnn2C2CCCCC2)cc1 | 8.52%

Structure (SMILES) | hERG current change (%, negative = inhibition) at 10uM
O=C(CNS(=O)(=O)c1ccc(Br)s1)N1CCCC1 | 22%
O=S(=O)(c1cc(F)ccc1F)N1CCN(C2CCCCC2)CC1 | -10.9%
O=[N+]([O-])c1cc(S(=O)(=O)N2CCCC2)ccc1N/N=C/c1cccs1 | 14.4%
Cc1onc(-c2c(F)cccc2Cl)c1C(=O)N[C@@H]1C(=O)N2C(C(=O)[O-])C(C)(C)S[C@H]12.[Na+] (stereo partly shown) | -4.35%
O=C(O)C(=O)O.c1ccc(CN2CCC(N3CCC(N4CCCCCC4)CC3)CC2)cc1 | 16.5%
CCC1CSC(Nc2ccc(C(=O)/C=C/c3ccc(Oc4ccccc4)cc3)cc2)=N1 (stereo not shown) | 10.1%
CC1(C)CN(c2ccc(Br)cc2Br)C1=O | 7.38%
O=C(CSc1nnnn1Cc1ccccc1)Nc1ccccc1 | 13.1%
Cc1ccc(C)c(N2CN(CCC3=CCCCC3)CNC2=S)c1 | -11.6%
Cc1c(C(=O)N2CCCC2)sc(NC(=O)c2ccccc2)c1C#N | 5.25%
C/C(COc1ccccc1)=N\NC(=O)c1nnn(-c2nonc2N)c1CSc1ccccc1 | 4.71%
N#Cc1c(Nc2ccccc2)c(/C=N/N=C/c2ccccc2)c[nH]c1=O | -1.68%
COC(=O)c1sc(N2C(=O)C(=O)/C(=C(/O)c3ccc(C)cc3)C2c2ccco2)nc1C (stereo not shown) | 17.3%
COC(=O)C(NC(=O)CCc1nnc2ccc(N3CCC(C)CC3)nn12)C(C)C (stereo not shown) | -3.57%
CC1=NNC(=O)C1Oc1ccccc1 (stereo not shown) | -1.86%
O=C(Nc1ccccn1)c1ccco1 | 14.9%
Oc1ccc(C=Nc2ccccc2-c2nc3ccccc3[nH]2)cc1 | 1.88%
Cc1nc2c(C)cccn2c(=O)c1NC(=O)COc1ccccc1 | -12.1%
C[C@]12CCC(=O)C[C@@H]1CC[C@@H]1[C@@H]2CC[C@]2(C)C=CC[C@@H]12 | 5.96%
CN1CC(=O)NC1=NC(=O)C12CC3CC(CC(C3)C1)C2 | -8.73%
COc1cc(/C=C2/SC(=S)N(CC(=O)Nc3nc4ccccc4s3)C2=O)cc(OC)c1OC | -1.98%
O=C(C[n+]1ccc(/C=N/O)cc1)N(Cc1ccccc1)Cc1ccccc1.[Cl-] | 0.798%

Structure (SMILES) | hERG current change (%, negative = inhibition) at 10uM
COc1cc(Cl)c(CN2CCC(CCC(=O)NC3CC3)CC2)cc1OC | -66.2%
COC(=O)c1c(-c2ccccc2OC)sc2ccc(OC)cc12 | 13.1%
CCc1ccc(NC(=O)C2CCCN(S(C)(=O)=O)C2)cc1 (stereo not shown) | 21.3%
COc1ccccc1C(=O)NCCCNC(=O)c1cccnc1 | 10.8%
Cc1ccc(S(=O)(=O)N2CCC(C)CC2)cc1C(=O)NCc1ccccn1 | 11.3%
Cc1nnc(NC(=O)NCN2C(=O)C3C4C=CC(C4)C3C2=O)s1 (stereo not shown) | -4.75%
O=C(NCCc1ccccc1F)c1cccc2cccnc12 | 13.6%
Cc1ccn2nc(C(=O)OCC(=O)N(CC(C)C)C3CCS(=O)(=O)C3)nc2n1 (stereo not shown) | 19.2%
O=C(Cc1cccc2ccccc12)NC(=S)Nc1cccc(C(=O)O)c1 | 15.6%
CCCCCC(=O)NC(NC(=S)NC1CCS(=O)(=O)C1)C(Cl)(Cl)Cl (stereo not shown) | -10.4%
Cc1cc(=O)[nH]c(SCC(=O)NC2CCCCC2)n1 | 8.81%
CC1CCN(C(C(=O)Nc2ccc(C(C)C)cc2)c2ccc3c(c2)OCO3)CC1 (stereo not shown) | -29.5%
COc1ccc(CNC(=S)Nc2cc(OC)ccc2OC)cc1 | -14%
COc1ccc2c(C)cc(Sc3nnnn3-c3ccccc3)nc2c1 | -16.3%
COCCNCC(=O)NC12CC3CC(CC(C3)C1)C2 | 8.91%
COc1ccc(-n2nc(C(=O)NCC(=O)Nc3cccc(C)n3)c3ccccc3c2=O)cc1 | 13.2%
Nc1c(C(=O)NCCC2=CCCCC2)sc2ccc(S(=O)(=O)N3CCCCC3)cc12 | -5.44%
O=C(Nc1cccc(Cl)c1)Nc1nnc(CSCCOc2ccc(Cl)cc2)s1 | 8.06%
Cc1ccc(N(C(=O)c2csnn2)C(C(=O)NC2CCCCC2)c2ccccn2)cc1 (stereo not shown) | 18.7%
CCN(CC(=O)Nc1ccccc1OC)C(=O)c1ccc2[nH]c3c(c2c1)CC(C)CC3 (stereo not shown) | -1.35%
CC(C)C(NC(=O)c1ccc(Cl)cc1)C(=O)O (stereo not shown) | 5.78%
COc1ccc(N/C=C2\CCOC2=O)cc1 | -2.84%

— article PMC4336329 (PLoS ONE, 2015)
